Assay results reported in the supplement of paper PMC4967469.
A lower IC50 marks a more sensitive line; fits outside the tested doses are given as limits. AUC, from the same fit, is the share of area under the viability curve across the 256-fold dose range; the more sensitive the line, the further below 1. For part of these data: A top dose marked as inferred comes from the curve model; the source does not state it. For part of these data: Where an entry number is given, a second screen of the drug exists; the two often differ.

Key:
Test in all cases: Viability of human cancer cell lines after 72 h of drug (GDSC screen)
RDEA119 = compound: COc1cc(F)c(F)c(Nc2ccc(I)cc2F)c1NS(=O)(=O)C1(C[C@H](O)CO)CC1 [RDEA119]; conditions: top dose 5 µM, top dose inferred
Experimental: (§1)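 Human cancer cell lines in 384-well plates, medium with 10% serum, drug for 72 h over a 256-fold dose range (nine 2-fold or five 4-fold steps up to the top dose). Adherent lines were fixed and stained with the nucleic acid dye Syto60, suspension lines read with resazurin; signal relative to control wells, capped at 0 and 100%. One two-parameter sigmoid per drug and line, fitted in a mixed model over all curves with the slope shared within a line.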

5-Fluorouracil = compound: O=c1[nH]cc(F)c(=O)[nH]1 [5-Fluorouracil]; conditions: top dose 32 µM; top dose inferred
Experimental: as §1

QS11 = compound: OC[C@H](Cc1ccccc1)Nc1nc(Oc2ccc3c(c2)CCC3)nc2c1ncn2Cc1ccc(-c2ccccc2)cc1 [QS11]; conditions: top dose 10.24 µM
Experimental: as §1

JNK-9L = compound: Fc1cc(-c2ccnc(Nc3ccc(-n4cnc(N5CCOCC5)n4)cc3)n2)cc(N2CCOCC2)c1 [JNK-9L]; conditions: top dose 5.12 µM; top dose inferred
Experimental: as §1

AC220 = compound: CC(C)(C)c1cc(NC(=O)Nc2ccc(-c3cn4c(n3)sc3cc(OCCN5CCOCC5)ccc34)cc2)no1 [AC220]; conditions: top dose 1.024 µM; top dose inferred
Experimental: as §1

OSU-03012 = compound: NCC(=O)Nc1ccc(-n2nc(C(F)(F)F)cc2-c2ccc3c(ccc4ccccc43)c2)cc1 [OSU-03012]; conditions: top dose 16 µM; top dose inferred
Experimental: as §1

CUDC-101 = compound: C#Cc1cccc(Nc2ncnc3cc(OC)c(OCCCCCCC(=O)NO)cc23)c1 [CUDC-101]; conditions: top dose 5.12 µM; top dose inferred
Experimental: as §1

Row | Cell Line | AUC (RDEA119; screen: GDSC drug entry 1014) | IC50 (RDEA119; screen: GDSC drug entry 1014) [µM] | AUC (RDEA119; screen: GDSC drug entry 1526) | IC50 (RDEA119; screen: GDSC drug entry 1526) [µM] | AUC (5-Fluorouracil) | IC50 (5-Fluorouracil) [µM] | AUC (QS11) | IC50 (QS11) [µM] | AUC (JNK-9L) | IC50 (JNK-9L) [µM] | AUC (AC220) | IC50 (AC220) [µM] | AUC (OSU-03012) | IC50 (OSU-03012) [µM] | AUC (CUDC-101) | IC50 (CUDC-101) [µM]
1 | OAW-42 (ovary, adherent) | 0.851 | 4.34 | 0.812 | 2.95 | 0.954 | > 32 | 0.95 | > 10.2 | 0.644 | 0.829 | 0.984 | > 1.02 | 0.802 | 8.66 | 0.745 | 1.73
2 | OCI-LY-19 (B-cell lymphoma, suspension) | 0.852 | 3.41 | 0.92 | > 5 | 0.569 | 3.05 | 0.768 | 3.56 | 0.5 | 0.32 | 0.981 | > 1.02 | 0.683 | 3.1 | 0.2 | 0.0452
3 | OCI-M1 (acute myeloid leukaemia, suspension) | 0.903 | 3.79 | 0.945 | > 5 | 0.764 | 9.13 | 0.907 | 8.05 | 0.737 | 1.24 | 0.951 | > 1.02 | 0.819 | 6.48 | 0.346 | 0.134
4 | OCUB-M (breast, adherent) | 0.99 | > 5 | 0.973 | > 5 | 0.871 | 23.4 | 0.802 | 4.27 | 0.731 | 1.31 | 0.96 | > 1.02 | 0.697 | 3.27 | 0.353 | 0.133
5 | OCUM-1 (stomach, adherent) | 0.265 | 0.0612 |  |  | 0.934 | > 32 | 0.975 | > 10.2 | 0.606 | 0.647 | 0.987 | > 1.02 | 0.873 | > 16 | 0.967 | > 5.12
6 | OE19 (oesophagus, adherent) | 0.862 | > 5 | 0.927 | > 5 | 0.959 | > 32 | 0.89 | > 10.2 | 0.612 | 0.681 | 0.982 | > 1.02 | 0.796 | 8.64 | 0.81 | 3.15
7 | OE21 (oesophagus, adherent) | 0.711 | 1.56 | 0.775 | 2.78 | 0.919 | > 32 | 0.85 | > 10.2 | 0.515 | 0.357 | 0.973 | > 1.02 | 0.687 | 4.12 | 0.67 | 1.15
8 | OMC-1 (cervix, adherent) | 0.844 | 3.81 | 0.904 | > 5 | 0.96 | > 32 | 0.962 | > 10.2 | 0.744 | 1.67 | 0.983 | > 1.02 | 0.714 | 4.15 | 0.529 | 0.385
9 | OPM-2 (myeloma, suspension) | 0.982 | > 5 | 0.992 | > 5 | 0.792 | 11.6 | 0.963 | > 10.2 | 0.581 |  | 0.992 | > 1.02 | 0.868 | 10.3 | 0.467 | 0.264
10 | OS-RC-2 (kidney, adherent) | 0.866 | > 5 | 0.853 | > 5 | 0.926 | > 32 | 0.879 | > 10.2 | 0.479 | 0.274 | 0.977 | > 1.02 | 0.733 | 6.36 | 0.84 | > 5.12
11 | OSC-19 (head and neck, adherent) | 0.736 | 1.52 | 0.86 | 4.49 | 0.965 | > 32 | 0.983 | > 10.2 | 0.534 | 0.398 | 0.985 | > 1.02 | 0.704 | 3.87 | 0.455 | 0.24
12 | OSC-20 (head and neck, adherent) | 0.874 | > 5 | 0.88 | > 5 | 0.877 | > 32 | 0.796 | 5.86 | 0.545 | 0.436 | 0.98 | > 1.02 | 0.559 | 1.49 | 0.559 | 0.479
13 | OV-90 (ovary, adherent) | 0.377 | 0.13 | 0.469 | 0.251 | 0.932 | > 32 | 0.912 | > 10.2 | 0.708 | 1.47 | 0.928 | > 1.02 | 0.69 | 4.01 | 0.691 | 1.29
14 | OVISE (ovary, adherent) | 0.739 | 1.92 | 0.885 | > 5 | 0.826 | 28.7 | 0.97 | > 10.2 | 0.683 | 1.24 | 0.98 | > 1.02 | 0.86 | > 16 | 0.55 | 0.458
15 | OVKATE (ovary, adherent) | 0.933 | > 5 |  |  | 0.976 | > 32 | 0.979 | > 10.2 | 0.828 | > 5.12 | 0.937 | > 1.02 | 0.84 | > 16 | 0.493 | 0.301
16 | OVMIU (ovary, adherent) | 0.76 | 2.17 | 0.763 | 2.23 | 0.658 | 6.17 | 0.894 | > 10.2 | 0.542 | 0.428 | 0.972 | > 1.02 | 0.859 | > 16 | 0.529 | 0.391
17 | OVTOKO (ovary, adherent) | 0.794 | 3.04 | 0.775 | 2.54 | 0.888 | > 32 | 0.977 | > 10.2 | 0.446 | 0.219 | 0.972 | > 1.02 | 0.835 | 14.8 | 0.712 | 1.52
